Consider 167 variants from the RNAGym collection of RNA variant scans (doi:10.1093/nar/gkz1192).

The source gives no read counts; variants with many changes may rest on few reads.

B1: CPEB3 Ribozyme (parent)
chain: UAACAGGGGGCCACAGCAGAAGCGUUCACGUCGCAGCCCCUGUCAGAUUCUGGUGAAUCUGCGAAUUCUGCUGUAUAUCUC

This series covers variants of B1. Kind of series: self-cleavage, relative activity (ratio to wild type); higher = more cleavage; in vitro, sequencing. An outline of the steps:
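Barcoded CPEB3 ribozyme mutants, produced by rounds of error-prone PCR, self-cleaved while being transcribed with T7 RNA polymerase for 5 hours at 37°C and during a subsequent 15 min DNase I step before EDTA was added. Sequencing of template-switched cDNA on Illumina gave cleaved and total reads, and DNA sequencing assigned barcodes to variants. Each variant's relative activity is its cleaved/total read fraction divided by the unmutated ribozyme's fraction, averaged across three batches. A variant needed a minimum of 5 reads.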
Turning to C14U A18U A65G U72C, the self-cleavage worked out at 0.25. For A13U U48C C68U U69C the value was 0.18; for A13U U25A G33A C62U U74A, 0.09; for A13U U31C U69C, 0.21. Then C14A U25C A35C C39A, with 0.1; and A13U U41C U54G C62U, with 0.24. Then A13U C23A U41A C44U, with 0.06; and A13U A35U C44G A56G U80C, with 0.14; and C14A A18G U25C, with 0.41. For C14U U25A U54C A56G U60C U76G, the self-cleavage came out at 0.06. Then C14U A18C U78C, with 0.31; and A13U U25A A56U U78C, with 0.06. Then A13U A28U U41C U66A U76A, with 0.37; and A13U A18G U43C U58C U67A U78C, with 0.22; and A13U C27U U41C, with 0.07.

For the variant A13U A18U U49C U58C A77U U78C, the self-cleavage is 0.11. Then A13U U26A C34G U43C C62A U72A, with 0.08; and A13U U60C U69G A75G, with 0.29. As for A13G U48C G55U A56U, the self-cleavage is 0.15.

As for A13G U41C U48C A56U U72A, the self-cleavage is 0.1.

As to A13G U41C U78C, the self-cleavage was 0.94. For A13U A21G C23A U72C the value was 0.1. Then A13U U25C A56G U60C, with 0.14; and A13U A18G U51C, with 0.87. For C14U C32U A35G U41A U69C U72C the value was 0.08; for A13U U41C U78A, 1.24.

Turning to A13U U26A G30A U54A, the self-cleavage was 0.07. A13U G24C U31A U48C A64G U69A: the self-cleavage amounted to 0.07.

A13U G16A U31C A35U U72A U74C U80C: the self-cleavage came to 0.06.

A13U C40U U78A: the self-cleavage came out at 0.69. Then C14G A15U C81A, with 0.49; and A13U A20G U43C U51A G53A A75G U80C, with 0.48. Then A13U A35U U51A U60C, with 0.22; and C14A U25C U31A A45G, with 0.08.

Take A13U A20G U41A A45G C59A U78A: the self-cleavage is 0.06.

On to A13U A18G C44U A56G, for which the self-cleavage amounted to 0.17.

Turning to A13U A21G A28G U31C A56U U69A A75U, the self-cleavage worked out at 0.08. As to A13U C23U U25C, the self-cleavage turned out to be 0.33. Then A13U A28G C39U A45G, with 0.26; and A13G U51A A64U U66C, with 0.31; and A13G U49C U72C, with 0.13. For A13G U31C U43C U51C A77U the value was 0.1; for C14U A15U C17U U67C, 0.19. For A13U A20G U41A the value was 0.26; for A13U U26A U43C U69C, 0.19.

As to A13G U41A U49C, the self-cleavage was 0.19.

With A13U A15G U41C G55A, the self-cleavage is 0.47. Then A13U A20G A65C, with 0.31. Then A13U A45G U76C, with 1.02; and A13G U31G U41C U69A U74A U78C, with 0.14; and A13U A18U U67C, with 0.14. Then A13U U43C U60A U78C, with 0.32; and A13G U58C G73A, with 0.82; and C14U A21U U26C U51C U60A U76A, with 0.03. Regarding C14U A28G U43G, the self-cleavage was found to be 0.45. For A13G U41A U80C the value was 0.55. Then A13U U31C A47U U67C, with 0.07; and A13U A20C U31A, with 0.12. Then C14U A18U A21G U41C U69C U80A, with 0.08. A13G U43A U72C: the self-cleavage came out at 0.88. As to A13G U41A A65G, the self-cleavage amounted to 0.14. For A13U A21G U51A U58C A77G the value was 0.06; for C14U A28G U43C A65C U76C C79U, 0.05; for A13U A21U U58A U60A, 0.14. For A13U U60C U74A the value was 0.81; for A13U U60C U74C, 0.49; for C14A A15C A21G U26C, 0.06. Then A13U A28U A64G, with 0.92; and A13U A28G U31C U72A, with 0.09. A13U A18G U26C G33A U69C: the self-cleavage is 0.12. As for A13U C17U A21G C39A U54A, the self-cleavage was 0.07. For A13U A21G A47G U76A the value was 0.5. For A13U A56G A57G U74A, the self-cleavage is 0.56. Then A13U A45G U67A, with 0.13; and A13G U51C U69C, with 0.36. Then A13U U26C C29G C39U U67A U76C, with 0.16.

As to A13U C32U A47G A64U A65G U80C, the self-cleavage was 0.08.

As to A13G U58C A64U, the self-cleavage stood at 0.1. With A13G U41C U54C A56U A64U U76C, the self-cleavage came to 0.1. For A13U U41A G73A the value was 0.21.

Turning to C14U C40G A65G, the self-cleavage is 0.04. Regarding A13U A35C A45G U60C, the self-cleavage stood at 0.77. Then A13U G33C U78A, with 0.17; and A13U C27U A28G A35U A45C U54A, with 0.05. For A13U U54C U60A U78C the value was 0.51; for A13U U31C U78C, 1.12; for C14U A18U U26A U51A C59G U74C A77U, 0.2. In the case of A13U C27U A45G A56G, the self-cleavage is 0.06. On to A13U A15U C23A A45U U67G C68U, for which the self-cleavage was found to be 0.07.

With A13U A18G A28G A35C A64U, the self-cleavage amounted to 0.1.

For A13U C59G C62A A65G U80C, the self-cleavage was determined as 0.1. For A13U A15G G16U A20G A21G A35U A56G the value was 0.05.

For A13U A21U U31A C34U U67C, the self-cleavage came to 0.04. For A13U A18U A35G G52A C62G the value was 0.13. For A13U C50U C79U the value was 1.2; for C14U A57G U80A, 1.25. Regarding A13U U54G U72C, the self-cleavage came to 1.21.

Take A13U U25C A35U C38A A64U U72G U78G: the self-cleavage worked out at 0.13. Then A13U A28G A57G, with 0.61; and A13U A15U U43C C79U, with 0.67; and A13U G16A U25C U60C A65G, with 0.13.

Turning to C14A A35G U78C, the self-cleavage was 1.32. Then A13U A35U U60C U78A, with 0.17; and A13U U31A U48A, with 0.42; and A13U A21G A45G U60C C62U, with 0.51. As to A13U U72G A75G, the self-cleavage was determined as 1.15. For A13G U31C A56U U69C the value was 0.13; for C14U A35G U43A, 1.25.

On to A13G U48C U80C, for which the self-cleavage was found to be 0.55.

Take A13G U48C U80A: the self-cleavage was 0.35. For A13U C29U C38A A45U A56U U78A the value was 0.03; for A13U A28G U41C C59G U78A, 0.12.

On to A13U G19U U41C, for which the self-cleavage was found to be 0.08. Then A13G U43A A57G, with 1.01; and A13U A28U A56G U72G, with 0.24.

For the variant A13G U41C U49A A57G G73A U78C, the self-cleavage was 0.67.

On to C14G A15C A20G C29U A47G U51C, for which the self-cleavage was found to be 0.14. For A13U A20U A35G U76C U80C the value was 1.1. Then A13U U41A U51A A56U A64U, with 0.05. On to C14A U43C U78C, for which the self-cleavage came out at 0.41. Then A13G U48C U60A A64G, with 0.15; and A13U U25C G33A, with 0.14; and A13U A64U U69A, with 0.39. For A13U U43C A57G C62A A64G the value was 0.16. Then A13G U69C A77G C79U, with 0.84; and A13U A18C A57G A65G, with 0.14.

With A13U U60C G61U U67C, the self-cleavage worked out at 0.19. For A13U U41A U49C A64G U69A the value was 0.05; for C14A A21C U25C, 0.04.

For the variant A13U A21G U25A U72A, the self-cleavage was found to be 0.07. Then A13U U69A A75U, with 0.64.

Turning to A13G U51C U78C, the self-cleavage amounted to 0.97. Take A13U A18U A35U U54C U78C: the self-cleavage was 0.13. Then A13U A28G A35U A56U C62U U72C U78C, with 0.09; and A13U A21G U72C, with 0.07. Then A13U A18U U69C, with 0.27; and A13G U51C A56G U74C A75G, with 0.57. Then A13U A18U A28U C44A U60C, with 0.12; and C14A U54G U60C U72A, with 0.18. Turning to C14U A21U U60C U69A A77G, the self-cleavage is 0.12. Then A13U A18U A45C A57C A64G U80C, with 0.03; and A13U U25C A57G U78C, with 0.16; and A13U A35G C37A U41C U54C U74A, with 0.9.

On to A13U A18G A35U U49A A75G A77G, for which the self-cleavage stood at 0.09. For A13U C14A C23G U41C C68A the value was 0.05; for A13U U31G U41A U58C U78A, 0.07. Regarding A13U U54C A64G U67C U72A U74C U78A, the self-cleavage came to 0.07. For A13U G33A A64G U66C the value was 0.13; for A13U C17G U25C A47G U49A U78C, 0.14; for A13U U26C U31C U51C A56G, 0.15. For C14U A15G A35U U43G U48C U51A A64U the value was 0.1; for C14U A28C A64G U72A U76A, 0.5. Then A13U U31C A35G A65U, with 0.45; and A13U A18U G70C U80A, with 0.08.

A13U G19U A56G A57G: the self-cleavage came to 0.09. Then A13G U69C U72C, with 0.35; and A13U A35U U41A A57G, with 0.16; and A13U A20U U78A, with 0.33. For A13U A15G A35G A56G the value was 0.77; for A13G U48C U60A C62A U72G, 0.16. For A13G U31C C40A U41C U60C A75G U78C the value was 0.04; for A13U A56G A77G, 0.82.

Consider A13U A20G A77U U78C, for which the self-cleavage was 0.73. For A13U U69C U80C the value was 0.55; for A13U A21U A28G A45G U66C U78C, 0.06. For the variant A13G U41A G46A U67A, the self-cleavage was 0.17. For A13U C34G U41C the value was 0.12.
